Measured values taken from paper PMC4336329 (PLoS ONE, 2015).
About 14,000 (4.5%) of roughly 310,000 compounds showed an effect of 50% or more. Effects have a minus sign here. Some of the results follow.

Molecular target: human ether-à-go-go-related gene (hERG) potassium channel (human, UniProt Q12809)
Assay: primary screen, population patch clamp on CHO cells stably expressing hERG
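Also: peak tail current of the secondary pulse compared with the same well before compound.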

Chain of human ether-à-go-go-related gene (hERG) potassium channel (Q12809 whole entry, looked up): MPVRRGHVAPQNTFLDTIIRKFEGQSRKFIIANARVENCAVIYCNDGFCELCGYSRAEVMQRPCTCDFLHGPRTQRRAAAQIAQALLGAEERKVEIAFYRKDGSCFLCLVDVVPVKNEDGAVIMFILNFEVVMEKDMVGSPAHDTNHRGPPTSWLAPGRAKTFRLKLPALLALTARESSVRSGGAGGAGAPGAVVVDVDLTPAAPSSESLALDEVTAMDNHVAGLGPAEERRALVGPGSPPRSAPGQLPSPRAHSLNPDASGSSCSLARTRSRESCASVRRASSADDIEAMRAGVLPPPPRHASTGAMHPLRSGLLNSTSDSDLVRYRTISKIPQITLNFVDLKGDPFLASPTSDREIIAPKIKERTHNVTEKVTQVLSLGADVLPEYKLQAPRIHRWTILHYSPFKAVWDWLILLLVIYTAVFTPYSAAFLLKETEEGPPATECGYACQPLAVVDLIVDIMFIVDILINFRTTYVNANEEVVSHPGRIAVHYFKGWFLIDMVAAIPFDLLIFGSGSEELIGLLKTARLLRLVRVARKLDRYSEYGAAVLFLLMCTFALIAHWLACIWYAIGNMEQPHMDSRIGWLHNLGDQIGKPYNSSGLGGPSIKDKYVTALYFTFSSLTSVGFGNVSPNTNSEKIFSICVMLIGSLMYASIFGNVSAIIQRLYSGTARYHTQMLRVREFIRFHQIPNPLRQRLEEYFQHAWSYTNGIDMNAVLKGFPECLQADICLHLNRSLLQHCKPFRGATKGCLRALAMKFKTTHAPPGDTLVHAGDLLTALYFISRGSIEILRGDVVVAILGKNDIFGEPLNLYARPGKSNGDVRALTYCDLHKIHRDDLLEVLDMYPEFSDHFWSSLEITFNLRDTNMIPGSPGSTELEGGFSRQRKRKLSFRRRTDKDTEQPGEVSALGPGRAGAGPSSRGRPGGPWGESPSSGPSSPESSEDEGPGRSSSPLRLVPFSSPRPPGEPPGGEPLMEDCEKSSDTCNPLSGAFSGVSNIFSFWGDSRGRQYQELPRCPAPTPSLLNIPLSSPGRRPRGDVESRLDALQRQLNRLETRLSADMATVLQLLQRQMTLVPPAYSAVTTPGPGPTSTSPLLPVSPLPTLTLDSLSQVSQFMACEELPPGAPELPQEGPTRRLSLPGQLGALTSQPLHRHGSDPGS

Compared with `CN(C)N1C(N)=C(C#N)C(c2ccccc2)C2=C1CCCC2=O` (centres unmarked), `COC(=O)c1cc(C#N)c(NCc2ccccc2)nc1C` is lower in “hERG current change (%, negative = inhibition) at 10uM” value: 5.36% for the first, -14.7% for the second.

Going from `O=C(CCN1C(=O)/C(=C/c2cccs2)SC1=S)Nc1ccccc1O` to `CN(CC(=O)Nc1sccc1C#N)Cc1ccccc1`, the “hERG current change (%, negative = inhibition) at 10uM” value falls from 13.7% to 8.25%.

First: Cn1c(=O)[nH]c(=O)c2c1nc(N1CCCCC1)n2CCCSc1nnnn1-c1ccccc1
Second: Cn1nc(-c2ccccc2)c(N2CCCCC2)cc1=O
The “hERG current change (%, negative = inhibition) at 10uM” value of the first is lower: -48.7% for the first, -2.07% for the second.

Compared with `C=COCCNC(=O)Nc1ccc(Cl)c(Cl)c1`, `CCOc1cc(Cl)c(S(=O)(=O)NCCCn2ccnc2)cc1Cl` is lower in “hERG current change (%, negative = inhibition) at 10uM” value: 9.59% for the first, -48.9% for the second.

First: CCc1nnc(NC(=O)CSc2nc3[nH]ncc3c(=O)[nH]2)s1
Second: CCc1nc(SCC(=O)Nc2ccccc2)c2c(=O)n(C)c(=O)n(C)c2n1
The “hERG current change (%, negative = inhibition) at 10uM” value of the first is higher: 21.9% for the first, 11.7% for the second.

Compared with `C=CCNCc1ccccc1[N+](=O)[O-]`, `CC1(C)CN=C(NCc2ccccc2Cl)S1` is lower in “hERG current change (%, negative = inhibition) at 10uM” value: 22.2% for the first, -16.6% for the second.

Going from `CC(=O)c1cccc(NS(=O)(=O)c2c(C(=O)N3CCOCC3)c(C)n(C)c2C)c1` to `O=C(Nc1ccc(Cl)cc1)Nc1ccc(C(=O)N2CCOCC2)cc1`, the “hERG current change (%, negative = inhibition) at 10uM” value falls from 5.2% to -3.06%.

Going from `Cc1cc(O)c(-c2cc(C(=O)Nc3sc4c(c3C(=O)NCc3ccco3)CCC4)[nH]n2)cc1C` to `Cc1onc(-c2ccccc2Cl)c1C(=O)NCc1ccccc1`, the “hERG current change (%, negative = inhibition) at 10uM” value falls from 33.2% to 12%.

First: COc1cccc(NC(=O)/C=C/c2ccco2)c1
Second: COc1cccc(NC(=O)CNC(=O)c2ccccc2)c1
The “hERG current change (%, negative = inhibition) at 10uM” value of the first is lower: -2.58% for the first, 4.4% for the second.

Compared with `Cc1nc2sc(C(c3ccccc3)N3CCC(O)CC3)c(O)n2n1` (centres unmarked), `CC1=CC2=NC(=O)CC(C)(C(=O)N(CC(=O)NC3CCCC3)c3ccccc3C)N2C=C1` (centres unmarked) is higher in “hERG current change (%, negative = inhibition) at 10uM” value: -0.814% for the first, 6.24% for the second.

Going from `O=C(NCc1ccc(Cl)cc1)C1CCN(S(=O)(=O)N2CCOCC2)CC1` to `O=C(NNS(=O)(=O)c1ccc(Cl)cc1)NC1CCCCC1`, the “hERG current change (%, negative = inhibition) at 10uM” value rises from -28.5% to 3.44%.

Compared with `COc1cc(/C=N/Nc2nn3cnnc3c3ccccc23)ccc1O`, `C/C(=N\NC(=O)c1cc(-c2ccc(O)cc2)nc2ccccc12)c1cccnc1` is lower in “hERG current change (%, negative = inhibition) at 10uM” value: 18.2% for the first, 11.7% for the second.

First: COc1ccc(/C=N/Nc2nc(N3CCCC3)nc(N3CCCC3)n2)c(OC)c1OC
Second: COc1cc(CN2CCC(C(=O)N3CCCC(C)C3)CC2)cc(OC)c1O.O=C(O)C(=O)O (centres unmarked)
The “hERG current change (%, negative = inhibition) at 10uM” value of the first is lower: -10.9% for the first, 3.64% for the second.

First: COc1ccc(C(CNC(=O)c2cccc(N(C)C)c2)N2CCCC2)cc1 (centres unmarked)
Second: O=C(NC(=S)Nc1ccc(S(=O)(=O)N2CCCCC2)cc1)c1ccc(Cl)cc1
The “hERG current change (%, negative = inhibition) at 10uM” value of the first is lower: -28.3% for the first, 20.9% for the second.

Compared with `CCOC(=O)C(CCCCOc1cccc(CC)c1)C(=O)OCC`, `Cc1cc(C)cc(NC(=O)c2cc(=O)c3ccccc3o2)c1` is lower in “hERG current change (%, negative = inhibition) at 10uM” value: 16.5% for the first, 8.7% for the second.

Going from `CC1CC1C(=O)OCC(=O)Nc1cccc(S(=O)(=O)NC2=NCCCCC2)c1` (centres unmarked) to `Cc1ccc(NC(=O)COC(=O)c2ccc(CN3CCCC3=O)cc2)c(Cl)c1`, the “hERG current change (%, negative = inhibition) at 10uM” value rises from -7.64% to 50.2%.

First: Cc1cc(C)n(-c2nc(N(c3ccccc3)c3ccccc3)nc(-n3nc(C)cc3C)n2)n1
Second: NC(=O)c1ccc(NC(=O)COC(=O)CC(NC(=O)c2ccccc2Cl)c2ccccc2)cc1 (centres unmarked)
The “hERG current change (%, negative = inhibition) at 10uM” value of the first is higher: 11.9% for the first, -1.35% for the second.

First: O=C(COC(=O)c1ccc(Cl)nc1)NC(=O)c1ccc(OC(F)F)cc1
Second: O=C(COC(=O)CNC(=O)c1ccc(Cl)c([N+](=O)[O-])c1)NNC(=O)c1cccs1
The “hERG current change (%, negative = inhibition) at 10uM” value of the first is lower: -28% for the first, 25.1% for the second.

Going from `O=C(CSCc1ccccc1)N1CCN(Cc2ccc3c(c2)OCO3)CC1` to `O=C(COc1ccccc1)Nc1ccc(S(=O)(=O)NCc2ccco2)cc1`, the “hERG current change (%, negative = inhibition) at 10uM” value rises from -22% to -17.3%.

First: CC1CCN(CCCNC(=O)CN2C(=O)CSc3ccc(S(=O)(=O)N4CCC(C)CC4)cc32)CC1
Second: CN1C(=O)C(=Cc2ccc(N3CCOCC3)o2)C(=O)N(C)C1=S
The “hERG current change (%, negative = inhibition) at 10uM” value of the first is lower: -54.5% for the first, -21.2% for the second.

Going from `Cc1ccc(/C=N/NC(=O)CNC(=O)c2ccc(C)c([N+](=O)[O-])c2)o1` to `CCOC(=O)c1ccc(N2C(=O)c3n[nH]c(-c4ccco4)c3C2c2ccc([N+](=O)[O-])cc2)cc1` (centres unmarked), the “hERG current change (%, negative = inhibition) at 10uM” value rises from -18.4% to -8.12%.

Compared with `CCCCCCC#Cc1cncc(C(=O)NNC(=O)Nc2cc(Cl)cc(Cl)c2)c1`, `O=C(/C=C/c1ccc(F)cc1)OCC(=O)c1ccc[nH]1` is lower in “hERG current change (%, negative = inhibition) at 10uM” value: 15.5% for the first, -6.2% for the second.
